Among all 310,000 compounds or so, about 14,000 (4.5%) showed an effect of 50% or more. Effects have a minus sign here. The list shows a part of the results.
These compounds were tested against human ether-à-go-go-related gene (hERG) potassium channel (human, UniProt Q12809) (assay: primary screen, population patch clamp on CHO cells stably expressing hERG).
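Further: peak tail current of the secondary pulse compared with the same well before compound.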

human ether-à-go-go-related gene (hERG) potassium channel, sequence (Q12809 whole entry, looked up): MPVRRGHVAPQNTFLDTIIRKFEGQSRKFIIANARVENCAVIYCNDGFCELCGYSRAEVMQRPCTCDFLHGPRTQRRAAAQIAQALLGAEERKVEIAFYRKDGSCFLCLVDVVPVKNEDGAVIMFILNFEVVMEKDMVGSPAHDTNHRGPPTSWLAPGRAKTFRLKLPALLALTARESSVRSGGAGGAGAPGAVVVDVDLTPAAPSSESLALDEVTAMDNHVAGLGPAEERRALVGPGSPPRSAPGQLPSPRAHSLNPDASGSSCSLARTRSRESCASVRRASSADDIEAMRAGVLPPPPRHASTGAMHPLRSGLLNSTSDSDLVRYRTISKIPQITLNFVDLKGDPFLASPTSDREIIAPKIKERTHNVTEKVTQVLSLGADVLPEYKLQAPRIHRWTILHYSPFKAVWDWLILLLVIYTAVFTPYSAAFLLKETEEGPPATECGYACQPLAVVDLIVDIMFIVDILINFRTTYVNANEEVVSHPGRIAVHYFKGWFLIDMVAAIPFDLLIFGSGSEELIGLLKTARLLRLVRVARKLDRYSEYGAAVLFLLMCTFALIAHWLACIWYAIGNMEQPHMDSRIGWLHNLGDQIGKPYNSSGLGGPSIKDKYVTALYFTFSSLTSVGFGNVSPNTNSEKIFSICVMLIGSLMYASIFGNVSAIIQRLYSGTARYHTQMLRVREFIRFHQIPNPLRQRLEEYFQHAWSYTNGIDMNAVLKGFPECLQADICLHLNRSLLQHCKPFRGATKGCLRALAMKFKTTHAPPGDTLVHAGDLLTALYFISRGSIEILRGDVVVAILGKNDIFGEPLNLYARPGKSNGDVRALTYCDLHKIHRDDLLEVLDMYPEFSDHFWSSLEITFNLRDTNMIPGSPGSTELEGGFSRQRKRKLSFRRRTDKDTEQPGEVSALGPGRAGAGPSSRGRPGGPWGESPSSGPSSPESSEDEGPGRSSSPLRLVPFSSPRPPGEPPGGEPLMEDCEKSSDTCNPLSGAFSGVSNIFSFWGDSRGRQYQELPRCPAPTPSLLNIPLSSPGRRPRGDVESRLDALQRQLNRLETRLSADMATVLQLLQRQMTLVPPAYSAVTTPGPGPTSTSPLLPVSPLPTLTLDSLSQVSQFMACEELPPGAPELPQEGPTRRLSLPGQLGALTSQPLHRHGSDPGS

SMILES	hERG current change (%, negative = inhibition) at 10uM [%]
O=C(Nc1ccccc1C(=O)N1CCCC1)C1COc2ccccc2O1 (stereo not shown)	9.02
CCn1c(SCC(=O)Nc2cc(NC(C)=O)ccc2OC)nnc1-c1ccccn1	4.03
O=C(CN1CCN(c2ccc([N+](=O)[O-])cc2)CC1)c1ccccc1	-75
COc1ccc(C(=O)OCC(=O)NC(C)CCc2ccccc2)c(OC)c1 (stereo not shown)	-15.1
COc1ccc(C(C)=O)cc1COC(=O)CCCN1C(=O)c2ccccc2C1=O	-11.3
COc1ccccc1CCNC(=O)c1ccc2nc[nH]c2c1	3.97
COc1ccc(CCNC(=O)CSc2nc3[nH]ncc3c(=O)n2-c2ccccc2OC)cc1OC	58.3
O=C(COC(=O)Cc1c[nH]c2ccccc12)NC1CCCCC1	16.7
C/C(=N\NC(=O)c1nnn(-c2nonc2N)c1CN1CCOCC1)c1ccc(CC(C)C)cc1	6.15
CC/C(=N\NC(=O)c1ccc(CN(C)S(=O)(=O)c2ccc(C)cc2)cc1)c1ccc(OC(F)F)cc1	-26.5
CCOc1cc(C(=O)NCCC(=O)N2CCC3(CC2)NCCc2[nH]cnc23)cc(OCC)c1OCC	27
Cc1nn(-c2ccccc2)c(C)c1C(=O)OCC(=O)NC(=O)NC1CCCC1	-15.8
CCN(CC)c1ccc(C(=O)OCC(=O)Nc2sccc2C#N)cc1	12.2
Cc1cccc(N2CCN(C(=O)C(Cc3ccccc3)NC(N)=O)CC2)c1C (stereo not shown)	0.0525
Cc1cc(=O)[nH]c(SCC(=O)NC(C)C2CC3CCC2C3)c1C#N (stereo not shown)	8.14
COc1ccc(-c2nn(-c3ccccc3)cc2/C=N/NC(=S)NC(C)C)cc1OC	0.00898
COc1cc2[nH]c(=S)n(C3CC3)c(=O)c2cc1OC	24.8
O=C(Nc1nnc(-c2ccc(Cl)cc2)o1)c1nc2ccccc2s1	6.88
O=[N+]([O-])c1ccc(OCc2n[nH]c(=S)n2-c2ccccc2)cc1	-8.54
NC(=O)c1ccc(NC(=O)COC(=O)c2ccc3c(c2)OCO3)cc1	-1.17
O=C(COC(=O)CNC(=O)C1CCCCC1)Nc1ccc(Br)cc1Br	-10.4
Cc1ccc(OCCSc2nnc(C)c(=O)n2N)cc1	4.24

SMILES	hERG current change (%, negative = inhibition) at 10uM [%]
CC(=O)N1C(=O)c2cccc3cccc(c23)C(=O)N1C(C)=O	3.49
CCOC(=O)c1c(N)nn(C(C)=O)c1-c1ccccc1	5.32
Cn1cnc2c1c(=O)n(Cc1ccccc1)c(=O)n2C	-2.12
CCOc1ccc(CCNC(=O)c2cc(-c3ccccc3)c(N3CCOCC3)s2)cc1OCC	8.52
Cc1ccc(-c2cc(-c3ccc(F)cc3)n[nH]2)c(O)c1	8.43
Cc1ccc(S(=O)(=O)N(C)C)cc1NC(=O)C(C)OC(=O)c1ccc2ccccc2n1 (stereo not shown)	-26.8
O=C(c1ccc(C(F)(F)F)n(Cc2ccc(Cl)cc2)c1=O)N1CCOCC1	-49.5
O=C(Cn1ncc2c1-c1ccccc1OC2)Nc1cccc(Cl)c1	3.76
Fc1ccccc1/C=C1\CCCC2=C1NC(=S)NC2c1ccccc1F (stereo not shown)	5.88
COc1ccccc1NC(=O)CN1C(=O)NC(C)(C)C1=O	16.8
O=C(O[C@H]1[C@H](Oc2ccccc2COC(=O)C2(O)C=CCCC2=O)O[C@H](CO)[C@@H](O)[C@@H]1O)c1ccccc1 (stereo partly shown)	24.8
Cc1ccccc1NC(=O)C1CC(=O)N(c2ccccc2F)C1 (stereo not shown)	-16
COc1cc(OC)c(-c2nc3ccccc3s2)cc1OC	-4.74
Cc1cccc(C(=O)OCC(=O)N(C)C(c2ccccc2)c2ccccc2)c1[N+](=O)[O-]	-5.25
COc1ccc(CC(=O)OCC(=O)Nc2c(C)n(C)n(-c3ccccc3)c2=O)cc1OC	-7.56
CCOC(=O)N1CCN(Cc2nc3cc(NC(=O)C(C)C)ccc3n2C)CC1	12.3
CCc1nn(CC(=O)N2CCN(c3cc(C)ccc3C)CC2)c(=O)c2cc3occc3n12	13
CCOc1ccc2cc(C3CC(c4ccco4)=NN3S(C)(=O)=O)c(=O)[nH]c2c1 (stereo not shown)	1.94
COc1cc(CNCc2ccc(C)cc2)cc(OC)c1OC.O=C(O)C(=O)O	-3.47
CC(=O)O[C@H]1CC(=O)OC(C)(C)C2CC(=O)[C@]3(C)C(CC[C@@](C)([C@@H](O[C@@H]4O[C@H](CO)[C@@H](O)[C@H](O)[C@H]4O)c4ccoc4)[C@@]34O[C@@H]4C(=O)O)[C@]21C (stereo partly shown)	-7.03
CC(=O)N(CN1C(=O)C2CC=CCC2C1=O)c1cccc(Cl)c1 (stereo not shown)	-5.31

From publication PMC4336329 (PLoS ONE, 2015)
